# Results taken from the supplement of paper PMC8728848.
# The list shows a part of the results.
# B1: Blon2468mut (Bifidobacterium longum) (protein)
# chain: MTFIKQMMPRYVASMTAGIVAAAMAATCAFAPVANADAVSPTQETIQSTGRHFMVYYRAWRDVTMKGVNTDLPDDNWISMYDIPYGVDVVNIFSYVPSGQEEQAQPFYDKLKSDYAPYLHSRGIKLVRGIDYTGVAVNGFRTFMKEQNKTESEATEADYDAYAKQVIDKYMISVGLDGLDIDMQAHPNDADVKISDNVIRALSKHIGPKSAKPDTTMFLYDTNGSYLNPFKNVAECFDYVAYQQYGSSSDRTARAAADYQPYIGNEFVPGLTFPEEGDMNNRWYDATEPYEESHFYQVASYVREHNLGGMFVYALDRDGRNYDEDLRRIVPSNLLWTKTAIAESEGMALDTAKTAANHYLDRMSLRQVIDDNAASADKARDMVGKAANLYETNKAVLGGDYGEGFSNTYDPTLEAGLLGIDISVLQQQIDKSSEIIGADTAESDAKTALRMARDAAIDGLTGKIYTADQVSAWSQALKAALDATVPVPTPDSTDQNGNRDKVTNHKVQGQPKQLSATGISTDIIVAVGVTLAIAGVALSLSRKLS
# Legend:
# Assay in all cases: glycan array binding signal (z-score within array); higher = stronger binding
# Conditions in all cases: glycan notation: IUPAC condensed, linker removed
# [1] = biological target: Neu5Ac(a2-6)Gal(b1-4)GlcNAc(b1-2)Man(a1-3)[Neu5Ac(a2-3)Gal(b1-4)GlcNAc(b1-2)Man(a1-6)]Man(b1-4)GlcNAc(b1-4)GlcNAc
# Summary of the method: (§1)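 Negative Z-scores can be read as non-binding. The Z-score is calculated within each array and then averaged across arrays of one protein sequence at different concentrations or buffers and across linkers. Arrays, 3228 in all, were curated from the Consortium for Functional Glycomics database and kept only where the protein sequence was available.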
# [2] = biological target: Neu5Ac(a2-6)Gal(b1-4)GlcNAc(b1-2)Man(a1-3)[Neu5Ac(a2-6)Gal(b1-4)GlcNAc(b1-2)Man(a1-6)]Man(b1-4)GlcNAc(b1-4)GlcNAc
# Summary of the method: as §1
# [3] = biological target: Neu5Ac(a2-6)Gal(b1-4)GlcNAc(b1-2)Man(a1-3)[Neu5Ac(a2-6)Gal(b1-4)GlcNAc(b1-2)Man(a1-6)]Man(b1-4)GlcNAc(b1-4)[Fuc(a1-6)]GlcNAc
# Summary of the method: as §1
# [4] = biological target: Neu5Ac(a2-6)Gal(b1-4)GlcNAc(b1-2)Man(a1-6)Man(b1-4)GlcNAc(b1-4)GlcNAc
# Summary of the method: as §1
# [5] = biological target: Neu5Ac(a2-6)Gal(b1-4)GlcNAc(b1-2)Man(a1-6)[Gal(b1-4)GlcNAc(b1-2)Man(a1-3)]Man(b1-4)GlcNAc(b1-4)GlcNAc
# Summary of the method: as §1
# [6] = biological target: Neu5Ac(a2-6)Gal(b1-4)GlcNAc(b1-2)Man(a1-6)[GlcNAc(b1-2)Man(a1-3)]Man(b1-4)GlcNAc(b1-4)GlcNAc
# Summary of the method: as §1
# [7] = biological target: Neu5Ac(a2-6)Gal(b1-4)GlcNAc(b1-2)Man(a1-6)[Man(a1-3)]Man(b1-4)GlcNAc(b1-4)GlcNAc
# Summary of the method: as §1
# [8] = biological target: Neu5Ac(a2-6)Gal(b1-4)GlcNAc(b1-2)[Neu5Ac(a2-6)Gal(b1-4)GlcNAc(b1-4)]Man(a1-3)[GlcNAc(b1-4)][Neu5Ac(a2-6)Gal(b1-4)GlcNAc(b1-2)[Neu5Ac(a2-6)Gal(b1-4)GlcNAc(b1-6)]Man(a1-6)]Man(b1-4)GlcNAc(b1-4)GlcNAc
# Summary of the method: as §1
# [9] = biological target: Neu5Ac(a2-6)Gal(b1-4)GlcNAc(b1-2)[Neu5Ac(a2-6)Gal(b1-4)GlcNAc(b1-4)]Man(a1-3)[GlcNAc(b1-4)][Neu5Ac(a2-6)Gal(b1-4)GlcNAc(b1-4)Man(a1-6)]Man(b1-4)GlcNAc(b1-4)GlcNAc
# Summary of the method: as §1
# [10] = biological target: Neu5Ac(a2-6)Gal(b1-4)GlcNAc(b1-2)[Neu5Ac(a2-6)Gal(b1-4)GlcNAc(b1-6)]Man(a1-6)[Neu5Ac(a2-6)Gal(b1-4)GlcNAc(b1-2)Man(a1-3)][GlcNAc(b1-4)]Man(b1-4)GlcNAc(b1-4)GlcNAc
# Summary of the method: as §1
# [11] = biological target: Neu5Ac(a2-6)Gal(b1-4)GlcNAc(b1-3)Gal(b1-3)GlcNAc
# Summary of the method: as §1
# [12] = biological target: Neu5Ac(a2-6)Gal(b1-4)GlcNAc(b1-3)Gal(b1-4)GlcNAc
# Summary of the method: as §1
# [13] = biological target: Neu5Ac(a2-6)Gal(b1-4)GlcNAc(b1-3)Gal(b1-4)GlcNAc(b1-2)Man(a1-3)[Neu5Ac(a2-6)Gal(b1-4)GlcNAc(b1-3)Gal(b1-4)GlcNAc(b1-2)Man(a1-6)]GalNAc
# Summary of the method: as §1
# [14] = biological target: Neu5Ac(a2-6)Gal(b1-4)GlcNAc(b1-3)Gal(b1-4)GlcNAc(b1-3)Gal(b1-4)GlcNAc
# Summary of the method: as §1
# [15] = biological target: Neu5Ac(a2-6)Gal(b1-4)GlcNAc(b1-3)Gal(b1-4)GlcNAc(b1-3)Gal(b1-4)GlcNAc(b1-2)Man(a1-3)[Neu5Ac(a2-6)Gal(b1-4)GlcNAc(b1-3)Gal(b1-4)GlcNAc(b1-3)Gal(b1-4)GlcNAc(b1-2)Man(a1-6)]GalNAc
# Summary of the method: as §1
# [16] = biological target: Neu5Ac(a2-6)Gal(b1-4)GlcNAc(b1-3)Gal(b1-4)GlcNAc(b1-3)GalNAc
# Summary of the method: as §1
# [17] = biological target: Neu5Ac(a2-6)Gal(b1-4)GlcNAc(b1-3)Gal(b1-4)GlcNAc(b1-3)[Neu5Ac(a2-6)Gal(b1-4)GlcNAc(b1-3)Gal(b1-4)GlcNAc(b1-6)]GalNAc
# Summary of the method: as §1
# [18] = biological target: Neu5Ac(a2-6)Gal(b1-4)GlcNAc(b1-3)Gal(b1-4)GlcNAc(b1-6)[Gal(b1-3)]GalNAc
# Summary of the method: as §1
# [19] = biological target: Neu5Ac(a2-6)Gal(b1-4)GlcNAc(b1-3)Gal(b1-4)[Fuc(a1-3)]GlcNAc(b1-3)Gal(b1-4)[Fuc(a1-3)]GlcNAc
# Summary of the method: as §1
# [20] = biological target: Neu5Ac(a2-6)Gal(b1-4)GlcNAc(b1-3)GalNAc
# Summary of the method: as §1
# [21] = biological target: Neu5Ac(a2-6)Gal(b1-4)GlcNAc(b1-3)[Neu5Ac(a2-6)Gal(b1-4)GlcNAc(b1-6)]GalNAc
# Summary of the method: as §1
# [22] = biological target: Neu5Ac(a2-6)Gal(b1-4)GlcNAc(b1-6)GalNAc
# Summary of the method: as §1
# [23] = biological target: Neu5Ac(a2-6)Gal(b1-4)GlcNAc(b1-6)[Gal(b1-3)GlcNAc(b1-3)]Gal(b1-4)Glc
# Summary of the method: as §1
# [24] = biological target: Neu5Ac(a2-6)Gal(b1-4)GlcNAc(b1-6)[Gal(b1-3)]GalNAc
# Summary of the method: as §1
# [25] = biological target: Neu5Ac(a2-6)Gal(b1-4)GlcNAc6S
# Summary of the method: as §1
# Neu5Ac(a2-6)GalNAc = biological target: Neu5Ac(a2-6)GalNAc
# Summary of the method: as §1
# [26] = biological target: Neu5Ac(a2-6)GalNAc(b1-4)GlcNAc
# Summary of the method: as §1
# [27] = biological target: Neu5Ac(a2-6)GalNAc(b1-4)GlcNAc6S
# Summary of the method: as §1
# [28] = biological target: Neu5Ac(a2-6)GlcNAc(b1-4)GlcNAc
# Summary of the method: as §1
# [29] = biological target: Neu5Ac(a2-6)GlcNAc(b1-4)GlcNAc(b1-4)GlcNAc
# Summary of the method: as §1
binder,measurement,setting,value
B1,glycan array binding signal (z-score),[1],0.012
same,glycan array binding signal (z-score),[2],-0.032
same,glycan array binding signal (z-score),[3],-0.077
same,glycan array binding signal (z-score),[4],-0.076
same,glycan array binding signal (z-score),[5],-0.062
same,glycan array binding signal (z-score),[6],-0.076
same,glycan array binding signal (z-score),[7],-0.065
same,glycan array binding signal (z-score),[8],-0.029
same,glycan array binding signal (z-score),[9],-0.086
same,glycan array binding signal (z-score),[10],-0.069
same,glycan array binding signal (z-score),[11],-0.081
same,glycan array binding signal (z-score),[12],-0.042
same,glycan array binding signal (z-score),[13],-0.073
same,glycan array binding signal (z-score),[14],-0.077
same,glycan array binding signal (z-score),[15],-0.054
same,glycan array binding signal (z-score),[16],-0.067
same,glycan array binding signal (z-score),[17],-0.059
same,glycan array binding signal (z-score),[18],-0.075
same,glycan array binding signal (z-score),[19],-0.078
same,glycan array binding signal (z-score),[20],-0.056
same,glycan array binding signal (z-score),[21],-0.036
same,glycan array binding signal (z-score),[22],-0.075
same,glycan array binding signal (z-score),[23],-0.066
same,glycan array binding signal (z-score),[24],-0.068
same,glycan array binding signal (z-score),[25],-0.055
same,glycan array binding signal (z-score),Neu5Ac(a2-6)GalNAc,-0.065
same,glycan array binding signal (z-score),[26],0.002
same,glycan array binding signal (z-score),[27],-0.085
same,glycan array binding signal (z-score),[28],-0.077
same,glycan array binding signal (z-score),[29],-0.051
